According to paper PMC10668032:
The other results are listed elsewhere or left out. At the low end of the ranking, values are background and their order means little.

These sequences were tested against SIX1 homeodomain (reference allele) (UniProt Q15475) (assay: universal protein binding microarray). Details: Universal all-10-mer PBM (8x60K, AMADID 030236), 300 nM GST-tagged protein, Alexa Fluor 488 anti-GST; buffer, salt, pH and temperature not stated; high values mean tight binding; most listed sequences are background and not binding sites; double strand, one strand shown.

Row | Sequence | binding signal [E-score]
1 | CTACGTGC | -0.141
2 | CTGTAAAA | -0.237
3 | ATCTTTCC | 0.137
4 | GCATGTCC | -0.155
5 | AGCTACAG | -0.196
6 | CGCGGGGA | 0.124
7 | GAGCCTAA | -0.171
8 | AACGCAAC | -0.212
9 | CCAGATCC | 0.332
10 | ACTAGTGG | -0.0504
11 | AGGTACCA | -0.228
12 | GTCAACAC | -0.0268
13 | GTGAAGCA | -0.164
14 | CCTTTGTC | -0.177
15 | CCCTTTCC | -0.0882
16 | AGCTGAGG | -0.224
17 | CTAAATTC | -0.117
18 | GCCACTCC | -0.0445
19 | CTGCTCGC | -0.219
20 | ATCTACCG | 0.232
21 | CTACATTA | -0.135
22 | CGTCCCTA | -0.0137
23 | AAATCCTA | -0.114
24 | AATCTTAG | -0.239
25 | AGCTGGAT | 0.248

Row | Sequence | binding signal [E-score]
26 | CTCGTAGC | -0.11
27 | TACCGAGA | 0.132
28 | CTTGAAGC | -0.239
29 | CAGAAAGG | -0.0337
30 | CTGCAGAC | -0.166
31 | AGCGCGAC | -0.148
32 | ACGAATGA | 0.145
33 | AATATCCT | 0.282
34 | CCCGAGGG | -0.107
35 | GACCCAGA | 0.211
36 | CGCACGTA | 0.111
37 | CTACAAAA | -0.148
38 | GAGGTCGA | -0.154
39 | CCTTATAG | -0.0679
40 | AGTCCTGG | -0.121
41 | CAGCTACG | -0.237
42 | ATCAGCGA | 0.103
43 | CCCATACC | 0.15
44 | CATCAAAA | -0.245
45 | CCAACGCC | -0.0612
46 | ATGGAGTA | 0.201
47 | GGGGGCAC | -0.19
48 | CACCACTC | -0.0348
49 | AGCAAGCC | -0.287
50 | CCTTCGCG | -0.157

Row | Sequence | binding signal [E-score]
51 | ACAAGAAT | -0.0968
52 | AACCACAG | -0.089
53 | AAGAGACA | 0.00979
54 | AGGATATG | 0.421
55 | ACCCCCAA | 0.135
56 | CGAATATC | 0.308
57 | ATGACAAC | -0.0918
58 | ACAATAAA | -0.155
59 | GTGAATTA | -0.198
60 | GAACTACC | -0.0624
61 | CGACCTAG | 0.0281
62 | ACGTGAAA | -0.0853
63 | ATGCTTGA | 0.0366
64 | CAAAGCGA | -0.000185
65 | CGGTCCGC | -0.254
66 | ATTTCTCC | -0.162
67 | CAGGCCGA | -0.0503
68 | GCAACAGA | -0.178
69 | CGCCAGTC | -0.165
70 | ATCTGAAG | -0.0239
71 | CAGTCTAC | -0.138
72 | CCAGAGCG | -0.199
73 | GCGAACCA | -0.103
74 | CCAATCTA | 0.0617
75 | ACCCGGCT | 0.22

Row | Sequence | binding signal [E-score]
76 | CGCACAAG | -0.151
77 | CCTCCTCC | 0.103
78 | GCTGATTA | 0.0603
79 | ACTTGCCT | -0.0635
80 | GCTAAAGA | -0.11
81 | AGCCATTG | -0.00278
82 | ATGCAGGC | -0.104
83 | CCCGTGCG | 0.147
84 | ACCCCCTG | 0.134
85 | GAGCGCCA | -0.0817
86 | AATAAGTA | -0.0797
87 | CCACCAAC | -0.0718
88 | GCTGAACC | -0.106
89 | GAGAAAAC | -0.146
90 | AACCGCAC | -0.254
91 | CCAGACTC | -0.0889
92 | ATGCCGGC | 0.0235
93 | GATAAACC | 0.141
94 | GTCCCGTA | -0.129
95 | AGGGGGAG | -0.163
96 | ATGATTCC | 0.197
97 | GGCATGAA | -0.00775
98 | AAAATAGC | -0.338
99 | AATTCACG | -0.143
100 | CGGAATAC | 0.154

Row | Sequence | binding signal [E-score]
101 | AATAAATT | -0.18
102 | AGGCGCGG | -0.038
103 | GCTACCCC | 0.158
104 | AGTCTAGA | 0.0847
105 | ATCTTATA | 0.275
106 | AAAAGGCA | -0.12
107 | GAGACAGA | 0.0639
108 | CAGAAAAA | -0.3
109 | CCTATGGC | -0.115
110 | CACTTGGG | -0.233
111 | AGAGCTAC | -0.0799
112 | GTCCCAGA | -0.0915
113 | CACTGGCA | 0.0184
114 | CCGATATC | 0.457
115 | AGATGCAC | 0.131
116 | ATATCTCG | 0.378
117 | AATTTACG | -0.313
118 | CTCTCCAC | 0.0103
119 | ACAACTTA | -0.136
120 | TGAAACAA | -0.16
121 | CGAGGATA | 0.384
122 | CAGTATGC | -0.18
123 | CTGTACTC | -0.141
124 | AAATGACG | -0.0885
125 | AACTTCTC | -0.0564

Row | Sequence | binding signal [E-score]
126 | GATTACGA | 0.0593
127 | GACCAGTC | -0.23
128 | CTTGAGGA | -0.0199
129 | CTTGTGTC | 0.0364
130 | TTCCACAA | 0.00992
131 | AAAGCCTT | -0.263
132 | AAAATGCC | -0.0903
133 | CCATAAGA | 0.043
134 | GAGTCACC | -0.158
135 | CTGAGGCC | -0.148
136 | AACCATCA | -0.183
137 | CGATATCG | 0.439
138 | ACTACGGG | 0.0779
139 | AAACGATC | 0.216
140 | CCTTCAAC | -0.184
141 | AACCAGGC | -0.113
142 | TGATTAAA | -0.0609
143 | AGGAGGAT | 0.316
144 | CTCAATGC | 0.0418
145 | AAGCGACC | -0.109
146 | AGATCCAC | 0.308
147 | CCACGGGG | 0.0561
148 | GGACAAAA | -0.256
149 | CATCTTAA | -0.0495
150 | ACCTGCAG | 0.0108

Row | Sequence | binding signal [E-score]
151 | TTACTGAA | 0.00381
152 | CCGGGTCA | 0.265
153 | AGATTAGG | 0.0406
154 | CTAGTCCC | -0.143
155 | TCTTAAAA | -0.106
156 | TGCTCTAA | -0.149
157 | CTCTGTCC | -0.0971
158 | GTCTACGA | -0.219
159 | CATTTGGC | -0.162
160 | ATAGTGTA | 0.205
161 | CCCGCTTC | -0.115
162 | CTAACCTC | -0.104
163 | ATCGCGAG | 0.198
164 | AGCTATAG | -0.0499
165 | AGCGTCCC | -0.0405
166 | AGCGCCTC | -0.229
167 | TACATAAA | 0.149
168 | AGCGTTAC | -0.186
169 | AATGGTAA | -0.173
170 | TGACTACA | -0.139
171 | CTTCAATC | -0.106
172 | ACCCAGAA | -0.0523
